Measured values reported in PubChem BioAssay AID504706 (National Center for Advancing Translational Sciences (NCATS), 2011).
Screen size: about 320,000 compounds; about 200 (0.062%) were called active. The shares of active, inactive and inconclusive entries below differ from those in the screen. The call rests on the fitted dose curve; in most records, active means well fitted activation curve with a large enough effect; inconclusive means small, poorly fitted or top-dose-only effect; inactive means no such curve, though single readings can be large or run the other way. No potency is given beside an inconclusive call; the fits are too rough.

Assay: qHTS assay for re-activators of p53 using a Luc reporter; further: nearly all actives have a fitted effect of over 45% in size; on activity change, positive = activation: % of control where 0% means no effect
Details: H1299 p53-A138V BP100-luciferase reporter, luminescence, 24 h; series mostly up to 92.2 µM; activity change, positive = activation: at the top concentration
How it was run: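 H1299 (p53-null), stable ts p53-A138V + BP100-Luc; 1000 cells/well, Opti-MEM/10% FBS; cpd 4 pt, 1:5; 24 h, 37 deg C, 5% CO2; detection reagent 10 min RT; luminescence.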
Potency means the concentration at half of the fitted maximal effect; tags describe the fitted curve by direction and shape.

Compound | Potency | activity change, positive = activation
Cc1ccn2cc(-c3ccc(NC(=O)c4ccco4)cc3)nc2c1 | inconclusive [activator, partial curve, poor fit] | 
COCCN(Cc1cc2cc3c(cc2nc1Cl)OCO3)C(=O)Nc1ccccc1OC |  | inactive: -1.18%
CCCn1cnc2c(cnn2-c2ccc(F)cc2)c1=O | inconclusive [activator, partial curve, poor fit] | 
COc1ccc(-c2noc(CCC(=O)N3CCN(c4cccc(C)c4C)CC3)n2)cc1 | inconclusive [activator, single point] | 
NC(=S)Nc1nc2ccccc2s1 |  | inactive: 4.58%
Cc1cccc(-c2nc3ccccc3c(=O)[nH]2)c1 | inconclusive [activator, full curve, poor fit] | 
C=CCN=c1scc(-c2ccc(F)cc2)n1/N=C/c1ccccn1 | inconclusive [activator, partial curve, poor fit] | 
CCN(CC)CC(=O)Nc1ccc(/C(C)=N/NC2=NCCN2)cc1 |  | inactive: 10.1%
O=Nc1c2nc3ccccc3n(O)c-2c2ccccc12 | inconclusive [activator, partial curve, poor fit] | 
Fc1ccccc1CSc1ccc(-c2ccco2)nn1 | inconclusive [activator, partial curve, poor fit] | 
COc1ccc2nc(N3CCC(O)CC3)c(C#N)cc2c1 | inconclusive [activator, single point] | 
CCOc1ccc(N=C(/C(C(=O)C(=O)N2CCOCC2)=C(\O)c2ccccc2)c2ccccc2)cc1 | inconclusive [activator, partial curve, poor fit] | 
O=C(c1cc2ccccc2s1)N1CCOCC1 |  | inactive: -3.57%
Cc1cc(Cl)cc(Cl)c1OCC(=O)NCc1ccco1 | inconclusive [activator, single point] | 
COc1ccc(S(=O)(=O)N(CCC(=O)O)Cc2ccccc2)cc1 |  | inactive: -1.1%
Cc1ccc(OCC(=O)Nc2cccnc2Cl)cc1C | inconclusive [activator, partial curve, poor fit] | 
O=C(O)c1ccc(S(=O)(=O)c2ccc3c(c2)C(=O)N(NC(=O)c2ccccc2)C3=O)cc1 | inconclusive [activator, partial curve, poor fit] | 
N=C1S/C(=C\c2cn[nH]c2-c2ccc(F)cc2)C(=O)N1c1ccccc1F | inconclusive [activator, partial curve, poor fit] | 
O=C(Nc1ccc2c(c1)OCO2)C1CC(c2c(F)cccc2Cl)=NO1 (stereo not drawn) | inconclusive [activator, full curve, poor fit] | 
CC(=O)Nc1nc(COc2ccc3ccccc3c2)cs1 | inconclusive [activator, full curve, poor fit] | 
NC(=S)Nc1cc(Cl)cc(Cl)c1 |  | inactive: -4%
CCOc1ccc(NC(=S)NC(=O)c2ccco2)cc1 | inconclusive [activator, full curve, poor fit] | 
O=C(CN1C(=O)/C(=C/c2cccc(Br)c2)SC1=S)NCCCN1CCOCC1 |  | inactive: -8.57%

Compound | Potency | activity change, positive = activation
Cc1c(CCOC(=O)c2cc([N+](=O)[O-])cc([N+](=O)[O-])c2)sc[n+]1CC(=O)c1ccc(Br)cc1 |  | inactive: -8.47%
CCn1cnc2cc(NCc3ccc(Cl)cc3)ccc21 | inconclusive [activator, full curve, poor fit] | 
O=C(CCS(=O)(=O)c1ccccc1)Nc1ccccc1-c1nc2ccccc2s1 | inconclusive [activator, single point] | 
CC(C)Cn1c(/C=C/c2ccccc2)nc2ccccc21 | inconclusive [activator, partial curve, poor fit] | 
CC1(C)Cc2c(cnn2-c2ccccc2)C(NC(=O)C2(C(N)=O)CC2)C1 (stereo not drawn) | inconclusive [activator, single point] | 
CCn1c(COc2ccccc2OC)nc2ccccc21 | inconclusive [activator, single point] | 
CCC(=O)Nc1cnc(NC(=O)c2cccc(F)c2)cc1C | inconclusive [activator, partial curve, poor fit] | 
COC(=O)c1cccc(NC(=O)c2cnoc2C)c1 | inconclusive [activator, single point] | 
O=C(CSc1ccccc1)NC1=NCCS1 |  | inactive: 5.22%
CCCc1nn(-c2ccccc2)c2c1C(c1cccs1)C(C#N)=C(N)O2 (stereo not drawn) |  | inactive: 2.91%
Cc1ccc(C(=O)Nc2ccc(Cl)cc2C(F)(F)F)c(Cl)c1 | inconclusive [activator, partial curve, poor fit] | 
COC(=O)c1c(-c2ccc(S(C)(=O)=O)cc2)sc2ccc(OC)cc12 | inconclusive [activator, full curve, poor fit] | 
CCOc1ccc(CN(C)CC(=O)NCc2ccc(F)cc2)cc1 |  | inactive: -3.53%
C/C(=C\C(=O)c1ccc(C)cc1)Nc1cccc(O)c1 | inconclusive [activator, partial curve, poor fit] | 
Cc1cccc(C)c1OCc1cc(C(=O)N2CCN(c3ccc(F)cc3)CC2)no1 | inconclusive [activator, partial curve, poor fit] | 
O=c1oc2ccccc2nc1/C=C(O)/C=C/c1ccc(F)cc1 | inconclusive [activator, full curve, poor fit] | 
N#C/C(=C\c1cccnc1)c1nc2c(s1)CCCC2 |  | inactive: 27.4%
CCOC(=O)c1c(C)nc(-c2ccccc2)nc1NC(=O)CC | inconclusive [activator, partial curve, poor fit] | 
Cc1ccc(NC(=O)c2sccc2C)cc1[N+](=O)[O-] | inconclusive [activator, full curve, poor fit] | 
NS(=O)(=O)c1ccc(CCNC(=O)NC2(C(F)(F)F)Oc3ccccc3O2)cc1 | inconclusive [activator, partial curve, poor fit] | 
Cc1cccc(NC(=S)NNc2ncc(C(F)(F)F)cc2Cl)c1 |  | inactive: -8.26%
c1cncc(-c2noc(-c3ccco3)n2)c1 |  | inactive: 12.9%
O=C(NCc1ccco1)c1cc2ccccc2c(=O)o1 | inconclusive [activator, partial curve, poor fit] | 

Compound | Potency | activity change, positive = activation
CN1CCN(c2ccc(NC(=O)CSc3ccccc3)cc2F)CC1 | inconclusive [activator, partial curve, poor fit] | 
COc1ccc(C(C)=O)cc1COc1ccc(F)cc1 |  | inactive: -1.99%
c1ccc(Cn2c(SCc3cn4cccnc4n3)nnc2-c2ccco2)cc1 |  | inactive: -1.5%
COc1cccc(Cn2nnc(C(=O)Nc3ccc(C)cc3)c2N)c1 | inconclusive [activator, partial curve, poor fit] | 
CCC1C/C(=C/c2ccco2)C(=O)/C(=C/c2ccco2)C1 (stereo not drawn) | inconclusive [activator, single point] | 
CCCc1cc2c(=O)c(-c3nc4ccccc4s3)c(COCC(=O)O)oc2cc1O | inconclusive [activator, partial curve, poor fit] | 
COc1ccc(C(=O)O/N=C(\N)c2ccncc2)cc1OC | inconclusive [activator, full curve, poor fit] | 
COc1ccccc1NC(=O)C(=O)NCCC1CCCCN1S(=O)(=O)c1ccc(F)cc1 (stereo not drawn) |  | inactive: -1.67%
COC(=O)c1ccccc1SCC(=O)Nc1ccc(N2CCOCC2)cc1 | inconclusive [activator, partial curve, poor fit] | 
Cc1ccccc1NC(=S)c1nc2ccccc2[nH]1 | inconclusive [activator, partial curve, poor fit] | 
COc1cc(NC(=O)Cc2ccccc2)ccc1NC(=O)c1ccco1 | inconclusive [activator, single point] | 
Oc1ccc(N=Cc2ccc(-c3cccs3)s2)cc1 | inconclusive [activator, single point] | 
CCCCCSc1nc2c(c(=O)[nH]c(=O)n2C)n1CCc1ccccc1 | inconclusive [activator, single point] | 
O=C(CNCCC1=CCCCC1)Nc1ccccc1N1CCCCC1 | inconclusive [activator, partial curve, poor fit] | 
COc1ccc(CCNC(=O)c2oc3ccc(OC)cc3c2C)cc1 | inconclusive [activator, single point] | 
O=C(Nc1ccc(Cl)c(Cl)c1)c1ccc(Cl)c(Cl)c1 | inconclusive [activator, partial curve, poor fit] | 
COc1ccccc1/C=C/C(=O)c1ccc(NC(C)=O)cc1 | inconclusive [activator, partial curve, poor fit] | 
C[C@H](NC(=O)OC(C)(C)C)C(=O)NCC1CCC(C(=O)O)CC1 (stereo partly drawn) | inconclusive [activator, single point] | 
Cc1cc(Br)ccc1NC(=S)NC1CCCC1 | inconclusive [activator, single point] | 
CC(=O)c1cccc(N(C(=O)CNC(=O)c2ccco2)C(C(=O)NC2CCCC2)c2ccncc2)c1 (stereo not drawn) |  | inactive: -2.34%
COc1cccc(NC(=O)C2C3C=CC4(O3)C2C(=O)N(CCCN2CCCCC2)C4C(=O)NC2CCCCC2)c1 (stereo not drawn) |  | inactive: -4.09%
COc1nc(Nc2cccc(C(F)(F)F)c2)nc(OC)n1 | inconclusive [activator, partial curve, poor fit] | 
